Data as given in the antibiotic and cytotoxicity screens of Wong et al. (2023).
The list shows a part of the results.

Key:
HSkMC = human skeletal muscle cells; assay: cytotoxicity call (relative viability < 0.9); conditions: 10 µM
HepG2 = assay: cytotoxicity call (relative viability < 0.9); conditions: 10 µM
S. aureus RN4220 = assay: growth inhibition call (relative growth <= 0.2); conditions: 50 µM

C[C@@H]1CN([C@H](C)CO)C(=O)c2cc(C#CC(C)(C)O)cnc2O[C@@H]1CN(C)C(=O)CN(C)C
inactive: cytotoxicity call (HSkMC) | cytotoxicity call (HepG2) | growth inhibition call (S. aureus RN4220)

O=C(C[C@@H]1CC[C@@H](NC(=O)CN2CCOCC2)[C@@H](CO)O1)NCc1cccc(F)c1
inactive: cytotoxicity call (HSkMC) | cytotoxicity call (HepG2) | growth inhibition call (S. aureus RN4220)

CN1C(=O)c2cc(NC(=O)c3cnccn3)ccc2OC[C@H]2O[C@H](CC(=O)NCC3CCCCC3)CC[C@H]21
inactive: cytotoxicity call (HSkMC) | cytotoxicity call (HepG2) | growth inhibition call (S. aureus RN4220)

C[C@H](CO)N1C[C@H](C)[C@@H](CN(C)Cc2cncnc2)Oc2cc(C#CC3CCCC3)ccc2S1(=O)=O
inactive: cytotoxicity call (HSkMC) | cytotoxicity call (HepG2) | growth inhibition call (S. aureus RN4220)

C[C@H](CO)N1C[C@H](C)[C@H](CN(C)C(=O)CCC(F)(F)F)OCCCC[C@H](C)Oc2ccc(NC(=O)Cc3ccccc3)cc2C1=O
inactive: cytotoxicity call (HSkMC) | cytotoxicity call (HepG2) | growth inhibition call (S. aureus RN4220)

COc1ccc(S(=O)(=O)Nc2ccc3c(c2)C(=O)N([C@@H](C)CO)C[C@H](C)[C@@H](CN(C)C(=O)Nc2ccccc2)OCCCC[C@H](C)O3)cc1
inactive: cytotoxicity call (HSkMC) | cytotoxicity call (HepG2) | growth inhibition call (S. aureus RN4220)

CC1(O)CCOC(=O)C1 (stereo not drawn)
inactive: cytotoxicity call (HSkMC) | cytotoxicity call (HepG2) | growth inhibition call (S. aureus RN4220)

O=C(CN1CCOCC1)N[C@H]1CC[C@H](CCNC(=O)C2CCC2)O[C@@H]1CO
inactive: cytotoxicity call (HSkMC) | cytotoxicity call (HepG2) | growth inhibition call (S. aureus RN4220)

NC(=S)CN1CCCC1=O
inactive: cytotoxicity call (HSkMC) | cytotoxicity call (HepG2) | growth inhibition call (S. aureus RN4220)

C[C@@H]1CCCCO[C@H](CN(C)CC2CC2)[C@H](C)CN([C@@H](C)CO)C(=O)c2cc(NC(=O)Nc3ccccc3)ccc2O1
inactive: cytotoxicity call (HSkMC) | cytotoxicity call (HepG2) | growth inhibition call (S. aureus RN4220)

C[C@H](CO)N1C[C@H](C)[C@@H](CN(C)C(=O)Nc2ccccc2)OCCCC[C@H](C)Oc2ccc(NC(=O)NC3CCCCC3)cc2C1=O
inactive: cytotoxicity call (HSkMC) | cytotoxicity call (HepG2) | growth inhibition call (S. aureus RN4220)
